± gives the standard deviation of the averaged measurements. The list shows a part of the results.

The subject of this assay is PfAP2-I AP2 domain 3 (GST-tagged). The assay is described as follows: gcPBM binding intensity (ln(normalized median fluorescence intensity)); higher = stronger DNA binding. The gist of the method: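 An Agilent 4 × 180k array of primer-extended double-stranded 36-bp intergenic genomic probes, with negative controls, was incubated for 1 h with GST-tagged P. falciparum DNA-binding domains expressed in E. coli. Alexa488 anti-GST antibody detected bound protein, scanned at 488 nm. Binding intensity is the highest Masliner-normalised natural-log median intensity across replicate spots of either probe orientation.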
For the sequence CGAAAAAGTGATATAGTGCAAAATTTTCATTTCTCT, the “gcPBM binding intensity (ln)” value was 9.805 ± 0.049.

“TGCTGTATATTTTTCTGTACACATTTATATATTCCA [XGTACX_site6244]”: the “gcPBM binding intensity (ln)” value stood at 8.12 ± 0.46. The result for “TTTTTTTTTCTTCTTTTCAAATTTAAGAAATTATAA [CACACA_negctrl_site18]” reads 7.55 ± 0.57; that for “TTGTTATTATATTACGCATGCATCATTTATTTGCAC [TGCATGCA_site525]”, 9.71 ± 0.22.

For “AAAGGGAATTATGGCTGTACGCATTTTATAAATAGC [XGTACX_site5878]”, the “gcPBM binding intensity (ln)” value is 7.93 ± 0.44. With “AAGAATAAGAAGAAGGATCCCCTTCAAAAAAAAAAA [TGCATGCA_negctrl_site525]”, the “gcPBM binding intensity (ln)” value was 7.6 ± 1.1. “AACAGATAAAAGGGTACACACATATATACAAGTACA [CACACA_site7959]”: the “gcPBM binding intensity (ln)” value came to 7.89 ± 0.33.

Turning to “TATATAGATATGATAGTGCATTTTTAGAAAACATAA [GTGCAC_site9962]”, the “gcPBM binding intensity (ln)” value was 9.44 ± 0.14. Consider “TTATGTAGCTAGCTATAAACTTTTTTTTATTTAAAA [CACACA_negctrl_site1297]”, for which the “gcPBM binding intensity (ln)” value was 7.33 ± 0.62. The result for “ATTATTATTAAATACACACACATACCTCCATGTTAG [CACACA_site3430]” reads 7.83 ± 0.59; that for “ATATATATATATATATGTACATACTATACAATAATT [XGTACX_site3546]”, 9.45 ± 0.67. The same measure for “ATATGTATGTATAATCGTACAAAATTTGGCGATCTT [XGTACX_site8698]”: 7.47 ± 0.5. The result for “TTTATATGTATTAATTGTACACATATAATGTGTTTT [XGTACX_site3064]” reads 7.61 ± 0.5; that for “TTTTTTTTAAAACTATGTACGTAAAAATTGTAGTTT [XGTACX_site2302]”, 8.215 ± 0.049; that for “GATATAATTATGTGTACACAATTTTTTTTTTTTTTT [CACACA_site4501]”, 8.21 ± 0.25. On to “AAATAAAGGAAATAAAAAGAAACCAATTTCGAATAT [CACACA_negctrl_site953]”, for which the “gcPBM binding intensity (ln)” value came to 7.59 ± 0.77.

On to “AGAACTTTTAATGGATGTACAGTTATTTTATTATTT [XGTACX_site6226]”, for which the “gcPBM binding intensity (ln)” value was found to be 7.83 ± 0.43. In the case of “ATATAGTAAATTGGTAGTACATAAAATGATTTTATG [XGTACX_site4143]”, the “gcPBM binding intensity (ln)” value was determined as 7.85 ± 0.52.

In the case of “AATAATAAAGTGAACACACACATATAATATATATAT [CACACA_site4143]”, the “gcPBM binding intensity (ln)” value is 8.87 ± 0.15.

Consider “ATAATTAAAATGCTCACACACATAAAAAAAAATTAA [CACACA_site2149]”, for which the “gcPBM binding intensity (ln)” value is 7.68 ± 0.48.

Consider “CAAACAAACGAACACACACACACACGCAAAAATGAT [CACACA_site7194]”, for which the “gcPBM binding intensity (ln)” value turned out to be 8.05 ± 0.52. As to “ATGCTTTTATGCACACGTACAAAAATATTATATAAT [XGTACX_site5589]”, the “gcPBM binding intensity (ln)” value was 10.6 ± 0.86. The result for “ATAATTTTATCATATATATATATATATAAATACTTA [CACACA_negctrl_site743]” reads 7.82 ± 0.33; that for “AAAAATTGAATTTTTTTTTTTTTTTTGAGAAGGAAA [CACACA_negctrl_site1196]”, 7.3 ± 0.52. The same measure for “AATATTTTTGTCGTTAGTACATAAAAAATAATAATA [XGTACX_site3074]”: 7.73 ± 0.44.

For “TTATTATTAAAAAAAAGTACAGAATTGAATAATACA [XGTACX_site651]”, the “gcPBM binding intensity (ln)” value stood at 7.89 ± 0.39. The same measure for “TTTTAATTTATTAATTGTACATGTATTTTAAGATTA [XGTACX_site8417]”: 7.64 ± 0.28; for “TAAACATTTGGCTGATGTACTTGCTACCTTAAATCA [XGTACX_site5514]”: 7.32 ± 0.59. Consider “ATTTTTGTGTATTAATGTACTTTATGCATATTTGAC [XGTACX_site3353]”, for which the “gcPBM binding intensity (ln)” value stood at 9.74 ± 0.78. Take “TATTTTTATAAGTAAAAGGAGCACAGTTAAAGGATC [XGTACX_negctrl_site362]”: the “gcPBM binding intensity (ln)” value turned out to be 8.5 ± 0.4.

“TTTTAAATATGAACATGTACATGTAAATTTACATGT [XGTACX_site4573]”: the “gcPBM binding intensity (ln)” value worked out at 7.83 ± 0.45.

For the sequence “TTTATAAAAATGAACACACACATATAAATATAAATA [CACACA_site7607]”, the “gcPBM binding intensity (ln)” value amounted to 7.74 ± 0.47. As for “AAAAATAGAATAAATACACACCCGTGTAACGGATTT [CACACA_site3372]”, the “gcPBM binding intensity (ln)” value was 7.29 ± 0.93. The same measure for “AATAATATATTTAGGGGTACATAATAATATATTTTA [XGTACX_site8366]”: 8.08 ± 0.028; for “GATAAATTAAGACACACACACATATATTTATTTATA [CACACA_site7789]”: 8.06 ± 0.5. Regarding “TAGTATTAGATATATACACACATATATACCTATAGA [CACACA_site7083]”, the “gcPBM binding intensity (ln)” value turned out to be 7.41 ± 0.57. Consider “TTACGATCATCAATATGTACATATATATATATATAT [XGTACX_site4301]”, for which the “gcPBM binding intensity (ln)” value came out at 9.21 ± 0.17. Regarding “ATTTTTTTTTTTATAGTGGATCCACATTTGCCATTT [CACACA_negctrl_site1106]”, the “gcPBM binding intensity (ln)” value is 8.09 ± 0.78. Consider “AATATTTATATTTACACACACATAATACATCTATGT [CACACA_site4187]”, for which the “gcPBM binding intensity (ln)” value was 7.84 ± 0.54.

Regarding “TATAAAAAAATATTATAATATATATATATATATATA [XGTACX_negctrl_site41]”, the “gcPBM binding intensity (ln)” value was determined as 9.21 ± 0.32. The result for “TATAAATAAAGATATACACACATATAAATATTTTTC [CACACA_site7798]” reads 7.55 ± 0.44; that for “TTGGTCTTTTAAAAAAGTACAAAAAAAAAAAAAAAA [XGTACX_site1665]”, 8.13 ± 0.35. The result for “AAAAAAAAGTTAAGCACACACATGAATAAATAATAC [CACACA_site840]” reads 8.52 ± 0.46.

As to “TTAACCGGTTTATGGGTGCACATTCTTCTTAAATAA [GTGCAC_site9928]”, the “gcPBM binding intensity (ln)” value is 10.4 ± 0.32.

These data come from the supplement of paper PMC11417369.
